# Measurements published in PubChem BioAssay AID1347417 (National Center for Advancing Translational Sciences (NCATS), 2020).
# Hit rate of the full screen: of about 120,000 compounds, about 5,300 (4.4%) were called active. The shares of active, inactive and inconclusive entries below differ from those in the screen. Calls come from the whole dose curve; as a rule, active = well fitted inhibition curve with a large enough effect; inconclusive = small, poorly fitted or top-dose-only effect; inactive = no such curve, though single readings can be large or run the other way. Potencies beside an inconclusive call are fits to weak or partial responses and may not hold up.
# Assay: qHTS Primary assay for Inhibitors of Plasmodium falciparum Dd2 growth in vitro; note: nearly all actives have a fitted effect of over 65% in size;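 for activity, negative = inhibition: plate controls were DMSO vehicle for no effect and reference drug for full effect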
# Conditions: P. falciparum Dd2 growth, SYBR Green, 72 h; activity, negative = inhibition: at 28.9 µM (top of the series) unless noted; series mostly up to 28.9 µM
# In short: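 Readout: SYBR Green fluorescence, 485 nm excitation, 535 nm emission, after ~16 h lysis at 37C. Before that, Dd2-infected red cells (2.5% hematocrit) grew 72 h with compound, 29 uM top final concentration.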
# Potency is the fitted concentration of half-maximal effect; tags give direction and shape of the fitted curve.
SMILES,Potency,"activity, negative = inhibition",outcome
CCOCC1(C)COc2ccc(C(=O)NCc3cc(OC)cc(OC)c3)cc2N1 (stereo not drawn),"inconclusive: 11.2 µM [inhibitor, single point]",–,–
Cc1ccc(NC(=O)N2CCC(CCNC(=O)CCc3ccccc3)CC2)cc1F,"inconclusive: 10 µM [inhibitor, single point]",–,–
O=C([C@H]1O[C@H](CCN2CCN(Cc3ccccc3)CC2)CC[C@@H]1O)N1CCN(c2ccc(F)cc2)CC1,"inconclusive: 7.08 µM [inhibitor, partial curve, poor fit]",–,–
Cn1cc(CNC(=O)C[C@@H]2C[C@H]3O[C@H](CNC4Cc5ccccc5C4)[C@@H](O)[C@H]3O2)cn1,–,inactive: 20.1% [at 44.1 µM],–
CC(=O)N1CCC(N2CCN3C(=O)N(c4ccccc4)C[C@H]3C2)CC1,"inconclusive: 5.62 µM [inhibitor, single point]",–,–
CN1c2cccnc2CN(CC2CCCCC2)CC[C@H]1CO,"inconclusive: 0.282 µM [inhibitor, full curve, poor fit]",–,–
CCOC(=O)c1cc(-c2ccccc2)n(CCC(=O)NC2CCCCC2)c1C,"inconclusive: 10 µM [inhibitor, single point]",–,–
CCOC(=O)c1ccc(NC(=O)CN2c3ccccc3S(=O)(=O)c3ccccc32)cc1,"inconclusive: 8.91 µM [inhibitor, partial curve, poor fit]",–,–
CCOC(=O)c1cccc(NC(=O)N2CC[C@@H](CC(=O)NCc3ccc(F)cc3)[C@@H](CC)C2)c1,"inconclusive: 10 µM [inhibitor, single point]",–,–
Cc1ccc2nc3c(n2c1)C(c1ccccc1OCCN(C)C)CC(=O)NC3 (stereo not drawn),–,inactive: -2.32%,–
Cc1ccsc1C(=O)Nc1ccc2c(N3CCCCC3)ncnc2c1,active: 11.2 µM,–,–
CCn1c(=O)c2cc(C(=O)N(CC(C)C)CC(C)C)sc2c2ccccc21,"inconclusive: 0.0891 µM [inhibitor, full curve, poor fit]",–,–
COc1cccc(-c2noc(CC3CCN(C(=O)CCc4ccccc4)CC3)n2)c1,"inconclusive: 11.2 µM [inhibitor, single point]",–,–
COc1ccc(-c2cc(N3CCCC(NC(=O)c4ccc(Br)o4)C3)n[nH]2)cc1 (stereo not drawn),"inconclusive: 0.224 µM [inhibitor, partial curve, poor fit]",–,–
CCOC(=O)c1ccccc1NC(=O)Cn1cccc1-c1nc(-c2ccc(F)cc2)no1,–,inactive: 87.1%,–
CCc1ccccc1-n1nc(-c2c(C)nc3scc(CC(=O)NCc4ccccc4)n3c2=O)cc1C,"inconclusive: 3.98 µM [inhibitor, single point]",–,–
O=c1cc(N2CCOCC2)oc2c(Nc3cccc(Cl)c3)nccc12,"inconclusive: 6.31 µM [inhibitor, partial curve]",–,–
O=C(NCCNc1cccnc1)C1CCC(=O)N(CCc2ccc(Cl)cc2)C1 (stereo not drawn),–,inactive: -5.13%,–
CCN1C(=O)C2CC3(CCN(C(=O)CCc4c[nH]c5ccccc45)CC3)CN2C1=O (stereo not drawn),"inconclusive: 17.8 µM [inhibitor, single point]",–,–
COc1ccc(Cl)cc1NS(=O)(=O)c1cc(Br)cc2c1N(C(=O)C1CC1)CC2,–,inactive: 11.3%,–
COc1cc2c(cc1Oc1cccc(N(C)C)c1)NC(=O)C21CCN(Cc2ccccc2)CC1,"inconclusive: 3.98 µM [inhibitor, single point]",–,–

SMILES,Potency,"activity, negative = inhibition",outcome
COc1ccc(CCNC(=O)c2sc3nc4n(c(=O)c3c2C)CCCC4)cc1OC,"inconclusive: 7.08 µM [inhibitor, partial curve, poor fit]",–,–
O=C1NC2(CCN(CC3CCCCC3)CC2)Oc2ccccc21,"inconclusive: 3.98 µM [inhibitor, single point]",–,–
Cc1ccc(CNC(=O)CCc2c(C)nc3c(c(C)nn3-c3ccccc3)c2C)cc1,–,inactive: -16.4%,–
O=C1Nc2ccccc2C12CN(Cc1ccccc1)C2,–,inconclusive: -79.2% [inhibitor] [at 44.1 µM],–
CC(C)C[C@@H](NC(=O)[C@@]1(O)C[C@@H](O)[C@H](O)[C@@H](NC(=O)c2cccnc2)C1)C(N)=O,"inconclusive: 1.26 µM [inhibitor, partial curve, poor fit]",–,–
CCC(=O)N1Cc2ccccc2CC2(CCCCN2Cc2cccnc2)C1 (stereo not drawn),"inconclusive: 8.91 µM [inhibitor, single point]",–,–
CS(=O)(=O)N1CC2(CCCN(CC3CC3)C2)Cc2ccccc21 (stereo not drawn),"inconclusive: 5.62 µM [inhibitor, partial curve]",–,–
O=C(CCc1nc(-c2cccs2)no1)Nc1ccccc1[N+](=O)[O-],–,inconclusive: -69.2% [inhibitor] [at 0.594 µM],–
COCCN1C(=O)[C@H]2CN(Cc3ccc(OC)c(OC)c3OC)C[C@H]2C1=O,–,–,inactive
CC[C@@H]1[C@@H](NC(=O)c2ccc(N3CCN(C)CC3)cc2)[C@@H]2CCO[C@H]12,–,inactive: -21.7%,–
CC(C)CS(=O)(=O)c1oc(-c2ccc(F)cc2)nc1S(=O)(=O)c1ccccc1,"inconclusive: 10 µM [inhibitor, single point]",–,–
Cn1nc(C(F)(F)F)c(Cl)c1C(=O)N[C@@H]1CCNC[C@H]1O,"inconclusive: 0.447 µM [inhibitor, full curve]",–,–
COCCNC(=O)CCc1cc2ccc(C)cc2[nH]c1=O,–,inactive: 16%,–
COc1ccc(C(=O)NC[C@H]2C[C@@H]3CCN2C[C@@H]3c2cc(-c3ccccc3Br)nc(C)n2)cc1,active: 7.08 µM,–,–
CCCS(=O)(=O)c1c(S(=O)(=O)CCC)c2cc(CC)ccn2c1C(=O)c1ccc(OC)cc1,"inconclusive: 11.2 µM [inhibitor, single point]",–,–
N#Cc1ccc(C(=O)Nc2ccc([C@@H](O)[C@H]3COCC(=O)N3Cc3ccccc3F)cc2)cc1,"inconclusive: 11.2 µM [inhibitor, partial curve, poor fit]",–,–
CCOc1ccccc1NC(=O)c1c(NC(=O)COc2ccccc2)sc2c1CCCCC2,"inconclusive: 0.0562 µM [inhibitor, full curve, poor fit]",–,–
CCc1noc(-c2cn(C3CCN(C(=O)Cc4cccc(C)c4)CC3)nn2)n1,–,inactive: -22.6%,–
COc1ccccc1-c1cc(C(=O)NC(C)C)c2cnn(C)c2n1,inactive,–,–
CCCn1cc(S(=O)(=O)c2ccccc2)c(=O)c2cc(F)c(N3CCCCC3)cc21,"inconclusive: 14.1 µM [inhibitor, single point]",–,–
COc1cccc(-c2ccnc3nc(-c4ccccc4OC)nn23)c1,–,–,inactive

SMILES,Potency,"activity, negative = inhibition",outcome
Cc1ccc(N2C(=O)CSC23C(=O)N(CC(=O)NCCc2ccccc2)c2ccccc23)cc1C (stereo not drawn),"inconclusive: 10 µM [inhibitor, single point]",–,–
COc1ccc(OC)c(-c2cc(C(=O)NCCc3ccccc3)c3c(-c4ccc(C)cc4)[nH]nc3n2)c1,"inconclusive: 17.8 µM [inhibitor, single point]",–,–
Nc1c(C(=O)Nc2ccc(Cl)cc2)sc2nc3c(cc12)N1CCC3CC1,"inconclusive: 10 µM [inhibitor, single point]",–,–
COC[C@@H]1CN(C(=O)c2n[nH]c3ccccc23)C[C@H]1c1nc(C)no1,–,inactive: -13.4%,–
COCc1nc(-c2ccc(OC3CN(Cc4ccsc4)C3)cc2)no1,"inconclusive: 14.1 µM [inhibitor, single point]",–,–
Cc1nn(-c2ccc(C(C)(C)C)cc2)c(C)c1[C@@H]1C=C[C@@H](NCc2ccco2)C1,"inconclusive: 2.82 µM [inhibitor, partial curve, poor fit]",–,–
COCc1noc([C@@H]2CN(Cc3ccc(C)cn3)C[C@H]2COC)n1,–,inactive: 19.5%,–
CC(C)COc1cccc(C(=O)Nc2ccc(-c3nc4ncccc4o3)cc2)c1,"inconclusive: 3.98 µM [inhibitor, partial curve, poor fit]",–,–
COc1cc(C(=O)N2CCC(Cc3nc(-c4ccccc4)no3)CC2)cc(OC)c1OC,–,inactive: -20.4%,–
CC1(C)[C@H](Cc2cc(-c3ccccc3)on2)C[C@@H]1NS(=O)(=O)c1ccccc1,"inconclusive: 12.6 µM [inhibitor, single point]",–,–
Cc1noc([C@@H]2CN(Cc3ccc(Cl)cc3F)C[C@H]2CO)n1,"inconclusive: 7.94 µM [inhibitor, partial curve]",–,–
Cc1ccc2[nH]c(CN3CCC(c4cccc(C#N)c4)CC3)cc(=O)c2c1,"inconclusive: 14.1 µM [inhibitor, partial curve, poor fit]",–,–
CN1[C@@H](CCC(=O)NCc2cccs2)CNC(=O)[C@@H]2[C@H]1CCN2Cc1ccc(O)cc1,–,inactive: -2.89% [at 44.1 µM],–
COc1cccc(NC(=O)C2CC(=O)N(c3n[nH]c4cccc(F)c34)C2)c1 (stereo not drawn),–,inactive: -17.6%,–
CNC(=O)CCn1ncc2cc(OCc3ccccc3-c3ccc(OC)cc3Cl)ccc21,"inconclusive: 1.41 µM [inhibitor, full curve, poor fit]",–,–
O=C(NCc1ccccc1F)N1C[C@@H](CN2CCCCC2)[C@@H](CO)C1,–,inactive: -1.99%,–
O=C(c1ccc(Cl)cc1)N1CCNc2cnc(Nc3cccc(C(F)(F)F)c3)nc2C1,"inconclusive: 14.1 µM [inhibitor, partial curve, poor fit]",–,–
Cn1cc(/C=C/c2nc3ccccc3c(=O)n2-c2ccccc2)c2ccccc21,"inconclusive: 11.2 µM [inhibitor, single point]",–,–
CCOc1ccc(NC(=O)CN2C(=O)C(c3ccccc3)=NC23CCC(C)CC3)cc1 (stereo not drawn),"inconclusive: 14.1 µM [inhibitor, partial curve, poor fit]",–,–
CCOC(=O)c1ccc(CN(Cc2ccc(F)cc2)S(=O)(=O)c2cc(C(=O)Nc3cccc(C(F)(F)F)c3)ccc2F)cc1,"inconclusive: 17.8 µM [inhibitor, single point]",–,–
COc1cc2c(=O)c(S(=O)(=O)c3ccc(F)cc3)cn(Cc3ccc(Cl)cc3)c2cc1OC,"inconclusive: 12.6 µM [inhibitor, single point]",–,–
